This assay has as its target T1, CTLA-4 (UniProt P16410 36-161, limits assumed).
T1 construct: construct not described; also called cytotoxic T-lymphocyte-associated antigen-4
T1 sequence (looked up): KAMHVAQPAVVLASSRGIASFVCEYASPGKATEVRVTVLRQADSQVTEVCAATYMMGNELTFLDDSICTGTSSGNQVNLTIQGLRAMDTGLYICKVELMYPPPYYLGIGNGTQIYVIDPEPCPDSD
The assay can be described thus: CTLA-4 binding ELISA.

B1: human CD80 ECD:human IgG Fc fusion protein comprising the amino acid sequence of SEQ ID NO:5 (hCD80ECD:hIgG1Fc) (Fc fusion)
chain: VIHVTKEVKEVATLSCGHNVSVEELAQTRIYWQKEKKMVLTMMSGDMNIWPEYKNRTIFDITNNLSIVILALRPSDEGTYECVVLKYEKDAFKREHLAEVTLSVKADFPTPSISDFEIPTSNIRRIICSTSGGFPEPHLSWLENGEELNAINTTVSQDPETELYAVSSKLDFNMTTNHSFMCLIKYGHLRVNQTFNWNTTKQEHFPDN[… human IgG1 Fc with changes …]
notes: also called Human CD80 ECD Human Fc IgG1 WT
As a reminder, the EC50 is the concentration at which the effect is half-maximal. Lower therefore signals greater potency. As to B1, the EC50 stood at 0.034 µg/mL.
